Data from article doi:10.1101/2021.10.31.466654 (bioRxiv, 2021).
Each block holds one binder with its values, some of them ahead of it.

Columns and labels:
Assay in all cases: MST
His-tagged CRT = molecular target: T1, His-tagged CRT (UniProt P27797 18-417)
T1 sequence: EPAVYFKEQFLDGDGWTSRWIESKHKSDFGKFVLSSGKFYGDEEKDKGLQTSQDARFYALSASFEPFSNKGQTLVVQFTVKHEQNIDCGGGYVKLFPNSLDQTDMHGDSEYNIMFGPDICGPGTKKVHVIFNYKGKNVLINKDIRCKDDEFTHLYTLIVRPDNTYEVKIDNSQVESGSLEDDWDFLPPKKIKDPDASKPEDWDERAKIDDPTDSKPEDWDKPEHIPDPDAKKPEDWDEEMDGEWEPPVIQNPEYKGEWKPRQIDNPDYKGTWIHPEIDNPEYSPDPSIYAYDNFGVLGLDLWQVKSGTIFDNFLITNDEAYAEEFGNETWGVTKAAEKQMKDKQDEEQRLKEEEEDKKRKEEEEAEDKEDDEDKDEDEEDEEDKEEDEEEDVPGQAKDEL

human CD4-His tag = human CD4-His tag (human, UniProt P01730)
[1] = molecular target: T2, full-length CRT fused at the C-terminus to the Fc domain of human Ig (human, UniProt P27797 18-417)
T2 sequence: T1 sequence

Kd (His-tagged CRT): 12.3 ± 2.4 µM
binding result (human CD4-His tag): binds
B1: Alexa647-labeled NKp46-Fc (Fc fusion)
chain: QQQTLPKPFIWAEPHFMVPKEKQVTICCQGNYGAVEYQLHFEGSLFAVDRPKPPERINKVQFYIPDMNSRMAGQYSCIYRVGELWSEPSNLLDLVVTEMYDTPTLSVHPGPEVISGEKVTFYCRLDTATSMFLLLKEGRSSHVQRGYGKVQAEFPLGPVTTAHRGTYRCFGSYNNHAWSFPSEPVKLLVTGDIENTSLAPEDPTFPADTWGTYLLTTETGLQKDHALWDHTAQNLLR
modifications: Alexa647 label

Kd [1]: 28.7 ± 8.3 µM
B2: Myc-tagged extracellular domain of NKp46 (domain or fragment)
chain: B1 chain
modifications: Alexa647 label (in the MST only)
